According to article PMC4242493:
The list shows a part of the results. The list includes weakly bound sequences.

biological target: MaxL homodimer (UniProt P61244); test: universal protein-binding microarray (PBM); details: PBS-based mixture, 10 nM His-tagged protein dimer, 2% milk, 200 ng/uL BSA, 50 ng/uL salmon testes DNA, 0.02% TX-100; detection with Alexa 488 anti-His …; high values mean tight binding; most listed sequences are background and not binding sites; double strand, one strand shown
Sequence of UniProt P61244 (P61244 whole entry): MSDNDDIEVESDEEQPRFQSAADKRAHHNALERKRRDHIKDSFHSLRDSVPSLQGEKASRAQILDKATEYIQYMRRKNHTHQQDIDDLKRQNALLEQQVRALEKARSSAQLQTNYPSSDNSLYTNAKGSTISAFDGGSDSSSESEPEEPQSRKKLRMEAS

Sequence | binding signal (normalized occupancy)
AGATGAAC | 0.0822
ATACCCGG | 0.0704
ACACTCAC | 0.075
GAACAGTC | 0.0727
CTCTAAAG | 0.0656
CGCGGCGA | 0.0704
AACCTGAG | 0.0732
ACGTTGTA | 0.0845
ACCGTCCA | 0.0727
CTGCGTGA | 0.0818
GGTTAATA | 0.0754
GGTTCTGA | 0.074
GACCGGGA | 0.0679
AACGGAAT | 0.0769
AAATAGCC | 0.076
AATAGGTC | 0.0778
GTTTCCAA | 0.0724
CAACCAAC | 0.0739
CGCGTTTC | 0.0778
CAATTTCA | 0.0751
ACACTTCA | 0.0766
CAAACCGC | 0.0686

Sequence | binding signal (normalized occupancy)
AAACACGC | 0.0929
CTAGCCTC | 0.076
AATGATCT | 0.0828
AAGCGCTT | 0.0738
AGTCCATA | 0.0814
ACGCACGC | 0.109
AAACTCCT | 0.0732
AAGTTACT | 0.0735
CACCGGAG | 0.0649
CTCAGTCA | 0.0715
TCTCCCAA | 0.0757
AACTATAT | 0.0879
CAACAAAC | 0.0754
AACCTCCG | 0.071
CACATACA | 0.0875
CAGCTAGC | 0.0696
AAACTCAA | 0.0694
CTCTCAAG | 0.0693
CCCTTCAA | 0.0725
AGCCCCGA | 0.0668
ACGCGTTA | 0.0897
GGACATAC | 0.0791

Sequence | binding signal (normalized occupancy)
AACAACAG | 0.0691
GGCTCATA | 0.0797
CCCGGCCC | 0.0674
GGTGCGAC | 0.0748
CGGAAAAA | 0.0709
AAGTTGAC | 0.0728
GGTTTGAC | 0.0732
AGAACCTC | 0.0745
AGACCTTC | 0.0725
CGGCATCC | 0.078
AAGGTGTG | 0.0881
CGCCTCTA | 0.0741
ACGCGCAT | 0.0874
CGTACGCC | 0.0757
GTCAACGA | 0.0765
ATAAGAAT | 0.0831
CTGTTTGC | 0.0759
ACGTTCGC | 0.0729
GAGAGGGC | 0.0657
GATTGAGA | 0.0788
CCCTCGGC | 0.0655
AATTACTA | 0.0717

Sequence | binding signal (normalized occupancy)
AACAACAT | 0.0756
CGCCCTCA | 0.0774
ATGTCTGG | 0.0823
ATTTAAGA | 0.0746
AGATCATA | 0.082
GGGCCTCA | 0.0699
CAACACGG | 0.0817
GGTCTAGA | 0.0765
CGCATGGC | 0.127
CACGATCC | 0.0764
ATCGCGAT | 0.0742
CCTAGAGC | 0.0678
AGTACGAG | 0.0727
CCTAGTGC | 0.0733
CCGGTTCA | 0.0669
ACACAGCT | 0.0751
GCTCCGCA | 0.0692
GAACGATA | 0.0795
GATACATC | 0.0834
GGACTTGA | 0.0817
AGAGCCAG | 0.0757
CCGCTCAA | 0.0717

Sequence | binding signal (normalized occupancy)
GGACTCCA | 0.0762
CTTGCGGA | 0.0728
GCGTAAGA | 0.07
GGACCCAA | 0.0726
GTCCCAAA | 0.0716
AGAATTAT | 0.0775
ATCTCATG | 0.0945
ATCCCCAC | 0.0813
ACCCAACG | 0.0755
ATGCGTCC | 0.0782
ACGGGTAC | 0.0821
CTAACTAA | 0.0746
ATAGCATC | 0.0799
CCGCACGC | 0.0999
CTGTGAAG | 0.0738
ATAGTAGG | 0.0788
GCTTGAAA | 0.0731
ATGATACG | 0.0814
CTGGGAAG | 0.071
ATACCAGA | 0.0758
CCGTAAAC | 0.0745
ACCCCGAG | 0.0798
